According to the supplement of paper PMC10338343:
± gives the standard deviation. Only a part is listed here, and it is no random draw.

tested on: MIWI (PIWIL1) piRISC loaded with L1MC piRNA (30 nt); assay: pre-steady-state target cleavage rate (min^-1); MIWI and MILI are mouse PIWI proteins and EfPiwi is from a freshwater sponge; tags in brackets are library labels; higher = faster piRNA-guided slicing of the target; conditions: guide: L1MC piRNA 5'p-UAACUAAAUACUAUGCAAGCUGUAGGUCCU; auxiliary factor: 500 nM mouse GTSF1
Protocol: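 Cleave-'n-Seq: a library of target RNAs (target site embedded in constant flanks, ACAGCATTCCGCGTTAGTGATATCCG... 5' flank; DNA-blocked outside the site) at 0.1 nM was incubated with 1 nM active mouse MILI or MIWI piRISC (synthetic 5'-monophosphorylated piRNA guide) with or without 500 nM mouse GTSF1 at 33 °C for 1 min to 16 h. Uncleaved targets were sequenced and normalised to non-target controls, and the pooled three trials were fitted to a burst-and-steady-state model to give the pre-steady-state cleavage rate (min^-1; k3 is constrained to at most 1e-4). Sequence is the target site only; target names encode pairing extent (gX:gY) and contiguous / 1-mismatch / 2-mismatch / bulge geometry. Fits with R² ≤ 0 are excluded.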

Sequence | pre-steady-state target cleavage rate
UCGACCUUGUGCUUGCAUAGUAUUUAGUUA | 0.871 ± 0.038
UCCUGGAUGAGUCUUGCAUAGUAUUUAGUUA | 0.255 ± 0.022
UCCUGGAUGAGGUUGCAUAGUAUUAAGUUA | 0.0252 ± 0.0099
UCCUCCAACAGCAUGCAUAGUAUUUAGUUA | 1.11 ± 0.051
UCCACCUACAGCUAUGCAUAGUAUUUAGUUA | 0.825 ± 0.033
ACGACCUACACCUUGCAUAGUAUUUAGUUA | 1.16 ± 0.042
UCGACCUACAGCUUGCAUAGUAUUUAUUUA | 0.472 ± 0.027
UCCACCUACAGCUUGCAUAGUAAAUACAAA | 0.155 ± 0.037
UCCUGGUACAGCUUGGAUAGUAUUUAGUAA | 0.421 ± 0.095
UCCUGGAACAGCUUGCAUAGUAUUUAGGUA | 0.172 ± 0.027
UCCUGCUUCAGCUUGGAUAGUAUUUAGUUA | 1.18 ± 0.078
UCCUGGAACAGCUUGCCAUAGUAUUUAGUUA | 0.156 ± 0.016
UGGACCUACAGCUUGCAAAGUAUUUAGUAA | 1.13 ± 0.074
UCCUCCUUGUGCUUGCAUAGUAUUUAGUUA | 0.62 ± 0.033
UCCUGGAUGAGCUUGCAUCGUAUUUAGUUA | 0.218 ± 0.015
AGGACCUAGACCUUGCAUAGUAUUUAGUUA | 1.01 ± 0.047
UCCUGGAUGUGCUUGGAUAGAAUUUAGUUA | 0.0175 ± 0.0088
UCGACCUACACCUUGCAUAGUAUUUACAAA | 0.353 ± 0.045
AGGACCUAGAGCUUGCAUAGAAUUUAGUUA | 0.246 ± 0.021
UCCUGGUACAGGUUGCAUAGUAUUUUCAAA | 0.144 ± 0.04
UGGACCUACUGCUUGCUUAGUAUUUAGUUA | 1.4 ± 0.081

same assay, conditions: guide: L1MC piRNA 5'p-UAACUAAAUACUAUGCAAGCUGUAGGUCCU; auxiliary factor: none (no GTSF1)

Sequence | pre-steady-state target cleavage rate
UCGACCUUGUGCUUGCAUAGUAUUUAGUUA | 0.0513 ± 0.0098
UCCUGGAUGUCGAAGCAUAGAAUUUAGUAA | < 0.0001
UCCUGGAUGAGUCUUGCAUAGUAUUUAGUUA | 0.0183 ± 0.0044
UCCUCCAACAGCAUGCAUAGUAUUUAGUUA | 0.0217 ± 0.0039
UCCACCUACAGCUAUGCAUAGUAUUUAGUUA | 0.0244 ± 0.0053
ACGACCUACACCUUGCAUAGUAUUUAGUUA | 0.0749 ± 0.014
UCGACCUACAGCUUGCAUAGUAUUUAUUUA | 0.0752 ± 0.015
UCCUGGUACAGCUUGGAUAGUAUUUAGUAA | 0.0149 ± 0.0041
UCCUGGAACAGCUUGCAUAGUAUUUAGGUA | 0.0306 ± 0.008
UCCUGCUUCAGCUUGGAUAGUAUUUAGUUA | 0.049 ± 0.0081
UCCUGGAACAGCUUGCCAUAGUAUUUAGUUA | 0.0036 ± 0.0034
UGGACCUACAGCUUGCAAAGUAUUUAGUAA | 0.0219 ± 0.006
UCCUCCUUGUGCUUGCAUAGUAUUUAGUUA | 0.0361 ± 0.0082
UCCUGGAUGAGCUUGCAUCGUAUUUAGUUA | 0.0272 ± 0.0072
AGGACCUAGACCUUGCAUAGUAUUUAGUUA | 0.0632 ± 0.013
UCCUGGAUGUGCUUGGAUAGAAUUUAGUUA | 0.00609 ± 0.003
UCGACCUACACCUUGCAUAGUAUUUACAAA | 0.00595 ± 0.0018
AGGACCUAGAGCUUGCAUAGAAUUUAGUUA | 0.0169 ± 0.0061
UGGACCUACUGCUUGCUUAGUAUUUAGUUA | 0.0402 ± 0.0083
